Experiment in all cases: Primary Screen for Target Class Profiling of Small Molecule Inhibitors of Methyltransferases
Test [1] addresses Glycine N-methyltransferase (Homo sapiens) (UniProt Q14749). Conditions: purified enzyme, MTase-Glo SAH luminescence; measured here: GNMT inhibition; at 40 µM; stronger effect = lower value. In short, it runs like this:
(§1)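 Each enzyme was assayed with SAM and its substrate. SAH formation detected by MTase-Glo luminescence; single-point 40 uM screen[…].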

The target in test [2] is Guanidinoacetate N-methyltransferase (Homo sapiens) (UniProt Q14353). The following applies: purified enzyme, MTase-Glo SAH luminescence; measured here: GAMT inhibition; at 40 µM; stronger effect = lower value. In short, it runs like this: as §1
For test [3], the target named is Histamine N-methyltransferase (Homo sapiens) (UniProt P50135). Conditions: purified enzyme, MTase-Glo SAH luminescence; measured here: HNMT inhibition; at 40 µM; stronger effect = lower value. Put shortly:
as §1

The target of test [4] is Nicotinamide N-methyltransferase (Homo sapiens) (UniProt P40261). The following applies: purified enzyme, MTase-Glo SAH luminescence; measured here: NNMT inhibition; at 40 µM; stronger effect = lower value. In short, it runs like this: as §1
For test [5], the target named is Phenylethanolamine N-methyltransferase (Homo sapiens) (UniProt P11086). Conditions: purified enzyme, MTase-Glo SAH luminescence; measured here: PNMT inhibition; at 40 µM; stronger effect = lower value. In short, it runs like this: as §1

Several values for one entry are separate records, joined by “and”; a condition that tells them apart may be missing. Equal entries are not always repeated. The list shows a part of the results. These are further read-outs of the screen, such as a control signal, another cell line or another target. No call is given for them.
On the % scale 0 is the no-effect control and ±100 the full control effect.

For `O=C(Cn1ccn2nc3c(c2c1=O)CCCCC3)NCc1ccccc1Cl`, the activity change, negative = inhibition was -7.34% in test [1]; -10.6% in test [2]; -3.39% in test [3]; -7.48% in test [4]; -6.22% in test [5].

Regarding `O=C(COc1ccccc1)N1C[C@@H](CO)[C@H](c2ccccn2)C1`, the activity change, negative = inhibition in test [1] was -3.26%; in test [2], -2.38%; in test [3], 0.509%; in test [4], -5.24%; in test [5], 0.639%.

As for `CN1C[C@H](C(=O)N[C@]2(C)O[C@@]3(O)[C@@H]4CCCN4C(=O)[C@H](Cc4ccccc4)N3C2=O)C[C@@H]2c3cccc4[nH]cc(c34)C[C@H]21`, the activity change, negative = inhibition was -33.6% in test [1]; 12.4% in test [2]; -0.576% in test [3]; -4.44% in test [4]; 1.28% in test [5].

In the case of `Cc1cc(C)cc(NC(=O)CSc2nnc3n(Cc4ccccc4)c(=O)c4ccccc4n23)c1`, the activity change, negative = inhibition was found to be 4.57% in test [1]; 0% in test [2]; 7.19% in test [3]; 6.86% in test [4]; 5.6% in test [5].

For the compound `CC(C)OCCCNC(=O)c1ccc2c(=O)nc3c(-c4ccccc4)n[nH]n3c2c1`, the activity change, negative = inhibition is -1.15% in test [1]; 1.8% in test [2]; 3.29% in test [3]; 0.103% in test [4]; -1.32% in test [5].

As for `CCN1CCN(c2nc3c(S(=O)(=O)c4ccc(Br)cc4)nnn3c3ccccc23)CC1`, the activity change, negative = inhibition is -4.85% in test [1]; 1.45% in test [2]; -31.3% in test [3]; 2.7% in test [4]; -2.03% in test [5].

For the compound `Cn1cc(-c2cnn3c(N)c(Br)c([C@@H]4CCCNC4)nc23)cn1`, the activity change, negative = inhibition in test [1] is -7.07%; in test [2], -2.29% and -1.06%; in test [3] it was -77.1%; in test [4] it was -26.1% and -21.3%; in test [5], -63% and -63.4%.

For `O=C1NC(=NC2CCCCC2)C2(CCN(Cc3ccccc3)CC2)N1c1cc(F)cc(F)c1`, the activity change, negative = inhibition in test [1] was -1.44%; in test [2], 0.156%; in test [3], 0.273%; in test [4], 0.281%; in test [5] it was -2.32%.

For `C/C=C/C=C/C(O)=C1/C(=O)[C@]2(C)C3/C(=C(O)/C=C/C=C/C)C(=O)C4(C)C1[C@]1(C)O[C@@]4(O)[C@@]3(C)O[C@@]12O`, the activity change, negative = inhibition in test [1] was 7.14%; in test [2], 7%; in test [3], 10.2%; in test [4] it was -4.14%; in test [5], 9.02%.

Regarding `CC(C)c1cc2n(n1)CC(C)(C(=O)NC1CCCCCC1)N(c1cccc(Cl)c1)C2=O` (stereo not given), the activity change, negative = inhibition in test [1] was 2.35%; in test [2] it was 4.92%; in test [3] it was 0.823%; in test [4], 3.33%; in test [5], -0.229%.

On to `Cc1ccc(C2c3cccn3-c3sc4c(c3CN2C(=O)Nc2ccc(F)cc2F)CCCC4)cc1` (stereo not given), for which the activity change, negative = inhibition is -5.7% in test [1]; -4.05% in test [2]; 1.91% in test [3]; -5.56% in test [4]; -3.12% in test [5].

As to `COCC1CN(S(=O)(=O)Cc2cccc(F)c2)CC12CCNCC2` (stereo not given), the activity change, negative = inhibition was -1.8% in test [1]; 1.66% in test [2]; -5.68% in test [3]; -3.33% in test [4]; 11.5% in test [5].

With `CC(C)NCC(C(=O)N1CCN(c2ncnc3c2C(C)CC3O)CC1)c1ccc(Cl)cc1` (stereo not given), the activity change, negative = inhibition in test [1] was -5.71%; in test [2], -1.99%; in test [3] it was -6.57%; in test [4], -16.2%; in test [5], -3.91%.

`Cc1ccc(N2C(=O)c3ccc(-c4ccco4)n3CC2(C)C(=O)NC2CCCC2)cc1` (stereo not given): the activity change, negative = inhibition is -3.18% in test [1]; -1.22% in test [2]; 2.88% in test [3]; 4.08% in test [4]; -1.47% in test [5].

Consider `N[C@@H]1CONC1=O`, for which the activity change, negative = inhibition in test [1] is 3.24%; in test [2] it was 9.98%; in test [3] it was 8.01%; in test [4], -7.83%; in test [5] it was -1.28%.

Take `CN1CCC(N2C[C@@H]3C[C@H]2C(=O)N(CC2CC2)c2ccccc2O3)CC1`: the activity change, negative = inhibition in test [1] is -2.42%; in test [2], -4.27%; in test [3], -69.1%; in test [4], -5.96%; in test [5], -2.88%.

As to `CCc1ccccc1NC(=O)c1ncn2c1C(=O)N(C1CC1)C(C)(C(=O)NCc1ccccc1OC)C2` (stereo not given), the activity change, negative = inhibition in test [1] is 3.94%; in test [2], 0%; in test [3], 5.98%; in test [4], 4.32%; in test [5] it was 6.11%.

Turning to `CN1Cc2ccc(NCc3ccccc3)nc2C(C)(C(=O)Nc2ccccc2)C1` (stereo not given), the activity change, negative = inhibition was -6.18% in test [1]; -1.4% in test [2]; -7.13% in test [3]; -14.1% in test [4]; -1.88% in test [5].

On to `CC1CCCCC1NC(=O)C1(C)Cn2c(cc3occc32)C(=O)N1CCc1ccc(Cl)cc1` (stereo not given), for which the activity change, negative = inhibition is -2.16% in test [1]; 4.76% in test [2]; -1.98% in test [3]; -0.219% in test [4]; -1.18% in test [5].

Consider `CC1CCCCN1CCN1C(=O)c2ccc(-c3ccco3)n2CC1(C)C(=O)NC1CCCCCC1` (stereo not given), for which the activity change, negative = inhibition was 3.67% in test [1]; 3.3% in test [2]; 6.89% in test [3]; -0.321% in test [4]; 0.673% in test [5].

Take `O=C(c1cccs1)N1CCCN(c2cc(-c3ccc(F)cc3)[nH]n2)CC1`: the activity change, negative = inhibition in test [1] was -5.31%; in test [2], -0.711%; in test [3], 0.071%; in test [4] it was -4.07%; in test [5] it was -0.733%.

In the case of `Clc1ccccc1CNC[C@H]1Cn2ccnc2CO1`, the activity change, negative = inhibition is -4.89% in test [1]; -4.01% in test [2]; -3.81% in test [3]; -12.5% in test [4]; -6.42% in test [5].

`COc1cccc(CSc2nnc3n(C)c(=O)c4ccc(C(=O)NC5CCCCC5)cc4n23)c1`: the activity change, negative = inhibition was -2.2% in test [1]; 3.21% in test [2]; 0.764% in test [3]; -3.9% in test [4]; 0.056% in test [5].

Take `COc1ccc2c(c1O)OC[C@H]1c3ccc(O)cc3O[C@@H]21`: the activity change, negative = inhibition is -8.69% in test [1]; 1.28% in test [2]; -12.2% in test [3]; -12.2% in test [4]; -2.35% in test [5].

Regarding `CCOC(=O)c1cc2n(n1)CC(C)(C(=O)NCc1ccccc1)N(Cc1ccc(C)o1)C2=O` (stereo not given), the activity change, negative = inhibition stood at 3.8% in test [1]; 0% in test [2]; 13.1% in test [3]; 11% in test [4]; 7.35% in test [5].

For `CC1CCC2C(C)(C)C(O)CCC2(C)C12Cc1c(O)cc3c(c1O2)CN(C(CCC(N)=O)C(=O)O)C3=O` (stereo not given), the activity change, negative = inhibition in test [1] was -2.64%; in test [2] it was -5.54%; in test [3], 1.78%; in test [4], -14.5%; in test [5], -2%.

For `C=C(C)[C@@H]1CC[C@]2(C)CC[C@]3(C)[C@H](CC[C@@H]4[C@@]5(C)CC[C@@H](O)C(C)(C)[C@@H]5CC[C@]43C)[C@@H]12`, the activity change, negative = inhibition in test [1] is -2.42%; in test [2], -7.54%; in test [3], 8.77%; in test [4] it was -19.7%; in test [5] it was -14.3%.

As to `CCCCN(CC)CCN1C(=O)c2cc3sccc3n2CC1(C)C(=O)NC1CCCCCCC1` (stereo not given), the activity change, negative = inhibition in test [1] was 2.33%; in test [2], 1.04%; in test [3], -1.88%; in test [4], 2.04%; in test [5], -0.338%.

With `C=C1C2(C)CC3C4(C)C=CC(=O)OC(C)(C)C4CCC3(C)C1(C(=O)OC)C(=O)C(C)(O)C2=O` (stereo not given), the activity change, negative = inhibition in test [1] is 0%; in test [2], 1.07%; in test [3], 3.91%; in test [4] it was -13%; in test [5] it was 2.62%.

The values are drawn from PubChem BioAssay AID1745853 (National Center for Advancing Translational Sciences (NCATS), 2022).
